Laboratory results: PubChem BioAssay AID485273 (Sanford-Burnham Center for Chemical Genomics, 2010)
In all, about 330,000 compounds went through this assay and about 1,500 (0.45%) were called active. Inconclusive results, whose numbers are uncertain, are shown with a selection of clear calls. Rule as the data show it: active = inhibition above about 45% (passing the limit was not always enough); inconclusive = no clear call, values can overlap the other calls.

target: Ubiquitin-conjugating enzyme E2 N (Homo sapiens) (UniProt P61088); assay: UBC13 polyubiquitin chain formation inhibitors, primary screen, biochemical, TR-FRET, uHTS (AID 485273); conditions: at 20 µM, active compounds read high
Chain of UniProt P61088 (P61088 whole entry, looked up): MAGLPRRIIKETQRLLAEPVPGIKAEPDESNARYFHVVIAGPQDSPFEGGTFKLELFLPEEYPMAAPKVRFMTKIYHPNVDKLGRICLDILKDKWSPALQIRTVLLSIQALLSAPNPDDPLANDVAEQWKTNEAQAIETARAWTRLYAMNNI

Compound	inhibition
N#Cc1c(C(F)(F)F)cc(-c2cccs2)nc1SCc1cccnc1	inconclusive: 91.9%
O=C(CCCn1c(=S)[nH]c2ccsc2c1=O)NC1CCCCC1	inconclusive: 57.8%
CCOC(=O)c1sc(=NC(=O)c2ccc(S(=O)(=O)N3CC(C)OC(C)C3)cc2)n(C)c1C (stereo unspecified)	inconclusive: 91.6%
COc1ccc(C[C@@H]2CN3C(=NC[C@@H]3Cc3ccc(O)cc3)N2C[C@H](C)NC(=O)CCC2CCCCC2)cc1	active: 56.2%
O=C(c1ccccc1)c1nn(-c2ccc(Cl)cc2)c(=O)cc1C(F)(F)F	inconclusive: 61.3%
Nc1c(C(=O)NCC2CCCO2)c2nc3ccccc3nc2n1-c1ccccc1 (stereo unspecified)	inactive: -9.4%
O=C(NCCN1CCN(c2ccccc2)CC1)c1ccc2c(c1)[nH]c(=S)n1c3ccccc3nc21	active: 46.6%
C#CCOCCOCCOCCNc1nc(N2CCN(C(=O)[C@H](Cc3ccc(O)cc3)n3cc([C@@H](N)CC(C)C)nn3)CC2)nc(N2CCN(C(=O)[C@H](Cc3cc4ccccc4[nH]3)n3cc([C@@H](N)CC(C)C)nn3)CC2)n1	active: 80.2%
O=S(=O)(Cc1cc(Cl)nc(-c2ccccc2)n1)c1ccccc1	inconclusive: 85.3%
Cc1ccccc1NC(=O)c1c(C)nc(SCC(=O)OCc2ccccc2)c(C#N)c1-c1ccc(F)cc1	inconclusive: 55.3%
C/C(CC(=O)Nc1ccccc1-c1ccccc1)=N\NC(=O)COc1ccc(C)cc1Br	inactive: -6.9%
O=C(CSc1nc2ccccc2s1)N1CCOCC1	inactive: -11%
Cc1cc(N2CCCC2)nc(-c2ccccc2O)n1	inconclusive: 83.8%
COc1ccc(OC)c(C(=O)/C=C/c2ccccc2C(F)(F)F)c1	inactive: 10.7%
Cc1cccc(N2CCc3c2nc2ccc(Br)cc2c3N)c1	inconclusive: 57%
CCOC(=O)CSc1nnc(-c2ccco2)n1-c1ccccc1	inconclusive: 70.3%
COc1ccc2c(-c3cnc(N4CCOCC4)nc3)c(-c3ccc(S(C)(=O)=O)cc3)sc2c1	inconclusive: 70.3%
CSCCC(NC(=O)c1ccccc1Cl)C(=O)NNC(=O)c1csc(N2CCOCC2)n1 (stereo unspecified)	active: 50.2%
Cc1cccc(N2C(=O)CC(Sc3nc(-c4ccccc4)c4cc(Cl)ccc4n3)C2=O)c1 (stereo unspecified)	inconclusive: 68.3%

Compound	inhibition
Cn1c(=O)[nH]c(=O)c2c1[nH]c(=S)n2Cc1ccc(Cl)cc1	inconclusive: 55.7%
CCc1cccc(NC(=O)CSC2=NS(=O)(=O)c3ccccc32)c1	active: 47.2%
O=c1c2cc(O)c(O)cc2oc2cc(O)c(C3OC(CO)C(O)C(O)C3O)c(O)c12 (stereo unspecified)	inactive: 6.6%
Fc1ccc(-c2nnn3c2nc(NCc2ccccc2)c2ccccc23)cc1	inconclusive: 75.5%
CCNc1c([N+](=O)[O-])c(=O)oc2ccccc12	inactive: -0.4%
COC(=O)c1sccc1NC(=S)Nc1cc(C)cc(C)c1	inconclusive: 93.1%
COc1cccc(-c2nc(C(N)=O)c3[nH]c(=O)n(-c4cccc(Cl)c4)c3n2)c1OC	active: 50%
N#Cc1c(N2CCN(C(=O)c3ccccc3)CC2)nc(-c2ccccc2)c2c1CCCC2	inconclusive: 51.6%
O=C(O)COc1ccccc1/C=N/NC(=O)Cc1ccccc1	inactive: -7.2%
COc1ccc2c(c1)[C@H]1[C@H](CO2)[C@H](c2ccccc2)[C@]2(C)C(=O)Nc3ccc(Br)cc3C(=O)N12	inconclusive: 47.1%
CCNC(=O)c1c(NC(=O)c2cc(-c3cc(C)ccc3O)n[nH]2)sc2c1CCCC2	inactive: 3.6%
CCc1ccccc1OCC(=O)OCC(=O)Nc1cc(C)on1	active: 48.2%
O=C(Cn1cccc1C(=O)c1ccccc1)NCCN1CCOCC1	inactive: 10.9%
O=C(c1cccs1)c1ccc(-c2cccs2)s1	inconclusive: 82.9%
CC(=O)c1csc(COc2ccccc2)n1	inconclusive: 71.4%
O=C1COc2ccc(C(=O)COC(=O)Cc3c(F)cccc3Cl)cc2N1	inactive: -2.1%
O=C(NNc1cccc(Cl)n1)Nc1ccc(Cl)cc1	inactive: -13.4%
S=c1[nH]c2ccccc2n2cccc12	inconclusive: 78.1%
CC(C)Cc1nnc(NC(=O)CS(=O)(=O)Cc2ccccc2)s1	inconclusive: 84.8%

Compound	inhibition
COc1ccc(C(=O)C(C)OC(=O)CN2C(=O)c3ccccc3C2=O)cc1 (stereo unspecified)	inconclusive: 91.2%
CCOC(=O)c1[nH]c2ccc(OC)cc2c1NC(=O)c1ccc2c(c1)OCO2	inactive: -7.8%
O=C(Nc1ccccc1)OCCOc1cccc(Br)c1	inactive: -0.7%
CN(CCOc1ccccc1)C(=O)c1ccc(Cl)c(S(=O)(=O)N2CCCCC2)c1	inactive: -8.2%
O=C(CSc1ncnc2ccccc12)Nc1cccc(S(=O)(=O)N2CCOCC2)c1	inactive: 24.8%
CCOc1ccccc1-c1cc(C(=O)N/N=C/c2cccnc2)c2ccccc2n1	inactive: -8.7%
COC(=O)c1sccc1NC(=S)Nc1cc(OC)ccc1OC	inconclusive: 97.3%
CCOC(=O)c1ccc(Nc2cc(C)nc(-c3ccccc3O)n2)cc1	inconclusive: 55.2%
CCOC(=O)c1c(C)nc2sc3c(c2c1-c1ccc(OC)cc1)NC(c1ccccc1)NC3=O (stereo unspecified)	inconclusive: 76.6%
Cc1ccc2sc(-c3ccc(NC(=O)c4cc(-n5cnnc5)ccc4Cl)cc3)nc2c1	inactive: 7.5%
Nc1c(Cl)ncnc1N/N=C/c1cccc(O)c1	active: 61.9%
Cc1cccc(-c2nc(=S)c3c(n2Cc2ccco2)CCCC3)c1	inconclusive: 78.8%
C/C(=N\NC(=O)CCc1ccccc1)c1ccc(Br)cc1	inactive: 9.5%
NC(=O)C1CCN(Cc2nc3c(Br)cc(Br)cc3c(=O)[nH]2)CC1	inconclusive: 83.5%
CNc1oc(-c2ccccc2)nc1C#N	inconclusive: 85.9%
COc1ccc(NC(=O)CN2CCCC2)cc1	inactive: -2%
Cc1ccc(O)c(-c2cc(-c3cccc(F)c3)n[nH]2)c1	inconclusive: 90.2%
Cc1cc(Br)ccc1NC(=O)c1cnc(N2CCN(c3ccccn3)CC2)c2ccccc12	inconclusive: 48.2%
